Among all 2,300 compounds or so, about 330 (14%) showed activity.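 The calls were made as follows: active = median modified Z-score above 1.96; inactive = 1.96 or below.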 The entries are a selection whose mix differs from that of the whole data set.

The test system of this experiment is HepG2 Srxn1-GFP reporter cells (+30 nM CDDO-Me). Description: Srxn1-GFP intensity median modified Z-score relative to plate median; higher = stronger NRF2 / oxidative stress reporter activation, active = hit call of the paper. The settings on record: 10 µM; exposure time: 24h. The essentials:
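Each value is the replicate median of a per-plate modified Z-score for GFP intensity in HepG2 Srxn1-GFP BAC reporter cells. The cells (20,000 per well, 96-well plates, three replicate plates) received compound at 10 μM together with an NRF2 activator at 30 nM for 24 h, in ≤0.1% DMSO. Cytoplasmic GFP was quantified per cell from confocal images of formaldehyde-fixed, Hoechst-stained cells, leaving out images with fewer than 100 cells, and scaling used 1.4826 × median absolute deviation.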
As to `CN(C)CCC(c1ccccc1)c1ccccn1` (configuration not stated) [euspeclibcmpd233], the “Srxn1-GFP intensity median modified Z-score” value is inactive: 0.0882. The figure for `O=c1c(O)c(-c2ccccc2)oc2cc(O)cc(O)c12` [euspeclibcmpd1698] is inactive: 0.613. For `O=C(O)c1cc(=O)c2c(OCC(O)COc3cccc4oc(C(=O)O)cc(=O)c34)cccc2o1` [euspeclibcmpd2347], the “Srxn1-GFP intensity median modified Z-score” value is inactive: 0.044.

Consider `CC(C=Cc1c(C)c(O)c2ccccc2c1O)=CCC[C@H](C)CCC[C@H](C)CCCC(C)C` [euspeclibcmpd621], for which the “Srxn1-GFP intensity median modified Z-score” value was inactive: -0.697. For the compound `CC(=O)c1ccc2c(c1)N(CCCN1CCN(CCO)CC1)c1ccccc1S2` [euspeclibcmpd619], the “Srxn1-GFP intensity median modified Z-score” value was inactive: 0.0217. With `Cc1cc(=N)c2ccccc2n1CCCCCCCCCCn1c(C)cc(=N)c2ccccc21` [euspeclibcmpd1012], the “Srxn1-GFP intensity median modified Z-score” value is active: 10. With `CC(=O)OC(C)C[N+](C)(C)C` (configuration not stated) [euspeclibcmpd186], the “Srxn1-GFP intensity median modified Z-score” value is inactive: -0.428. As for `C=CCc1ccccc1OCC(O)CNC(C)C` (configuration not stated) [euspeclibcmpd973], the “Srxn1-GFP intensity median modified Z-score” value is inactive: -0.703.

For the compound `COCCn1c(SCC(=O)N(C)Cc2ccc(Cl)s2)nc2cc(Cl)ccc21`, the “Srxn1-GFP intensity median modified Z-score” value was inactive: 0.575. Regarding `COc1ccc2c(c1)OCC(Cc1ccc(OC)c(OC)c1)C2=O` (configuration not stated) [euspeclibcmpd1645], the “Srxn1-GFP intensity median modified Z-score” value was active: 15.4. Take `C[C@@H]1CN(c2c(F)c(F)c3c(=O)c(C(=O)O)cn(C4CC4)c3c2F)C[C@H](C)N1` [euspeclibcmpd981]: the “Srxn1-GFP intensity median modified Z-score” value is inactive: -0.465.

Take `COc1cc2c(cc1OC)C1C(=O)c3ccc4c(c3O[C@@H]1CO2)C=CC(C)(C)O4` (some centres not stated) [euspeclibcmpd1734]: the “Srxn1-GFP intensity median modified Z-score” value is active: 12.7. The figure for `O=c1cc(-c2ccccc2)oc2ccc(O)cc12` [euspeclibcmpd1505] is inactive: 0.447; for `CC(CCc1ccc(O)cc1)NCCc1ccc(O)c(O)c1` (configuration not stated) [euspeclibcmpd670] it is inactive: 0.0455; for `O=C(c1ccccc1)c1ccc(Cl)cc1O` it is inactive: 1.14.

`CCOc1nc2cccc(C(=O)OC(C)OC(=O)OC3CCCCC3)c2n1Cc1ccc(-c2ccccc2-c2nn[nH]n2)cc1` (configuration not stated) [euspeclibcmpd677]: the “Srxn1-GFP intensity median modified Z-score” value was inactive: 0.324. For `CC(C)(Oc1ccc(C2CC2(Cl)Cl)cc1)C(=O)O` (configuration not stated) [euspeclibcmpd1064], the “Srxn1-GFP intensity median modified Z-score” value is inactive: -0.411.

`C[C@@H](O)[C@H]1C(=O)N2C(C(=O)O)=C(SCCN=CN)C[C@H]12` [euspeclibcmpd906]: the “Srxn1-GFP intensity median modified Z-score” value is inactive: -0.526. As for `CC(C)c1c(O)ccc2c1CCC1C(C)(C)CCC[C@]21C` (some centres not stated) [euspeclibcmpd1572], the “Srxn1-GFP intensity median modified Z-score” value was active: 8.09. As to `NC(=O)C1(N2CCCCC2)CCN(CCCC(=O)c2ccc(F)cc2)CC1` [euspeclibcmpd843], the “Srxn1-GFP intensity median modified Z-score” value was inactive: -0.447. As for `CNC1(C)C2CCC(C2)C1(C)C` (configuration not stated) [euspeclibcmpd175], the “Srxn1-GFP intensity median modified Z-score” value was inactive: -0.487. Turning to `NC(=O)c1cccnc1` [euspeclibcmpd770], the “Srxn1-GFP intensity median modified Z-score” value is inactive: -0.139. For `Cn1c(=O)c2c(ncn2CC(O)CO)n(C)c1=O` (configuration not stated) [euspeclibcmpd108], the “Srxn1-GFP intensity median modified Z-score” value is inactive: -0.0859.

`COc1ccc2c(c1)c(CC(=O)OCC(=O)O)c(C)n2C(=O)c1ccc(Cl)cc1` [euspeclibcmpd1046]: the “Srxn1-GFP intensity median modified Z-score” value is inactive: -0.264.

For `COC(=O)N=c1[nH]c2ccc(C(=O)c3ccc(F)cc3)cc2[nH]1` [euspeclibcmpd2318], the “Srxn1-GFP intensity median modified Z-score” value was active: 8.09. On to `CC(=O)NC[C@H]1CN(c2ccc(N3CCOCC3)c(F)c2)C(=O)O1` [euspeclibcmpd497], for which the “Srxn1-GFP intensity median modified Z-score” value is inactive: -0.246.

For `O=C1C(O)=C(O)C(=O)C(O)=C1O` [euspeclibcmpd573], the “Srxn1-GFP intensity median modified Z-score” value was inactive: 0.365.

Consider `Cc1nccn1CC1CCc2c(c3ccccc3n2C)C1=O` (configuration not stated) [euspeclibcmpd508], for which the “Srxn1-GFP intensity median modified Z-score” value was inactive: -0.204. Consider `CC(C)Cn1c(=O)n(C)c(=O)c2nc[nH]c21` [euspeclibcmpd1808], for which the “Srxn1-GFP intensity median modified Z-score” value was active: 11.6. `OCC(S)CS` (configuration not stated) [euspeclibcmpd98]: the “Srxn1-GFP intensity median modified Z-score” value was inactive: 0.392.

As for `O=C(c1cccnc1)N1CCOCC1` [euspeclibcmpd1288], the “Srxn1-GFP intensity median modified Z-score” value is inactive: -0.123.

Take `COc1ccc2cc3[n+](cc2c1OC)CCc1cc2c(cc1-3)OCO2` [euspeclibcmpd1051]: the “Srxn1-GFP intensity median modified Z-score” value was active: 6.03. For the compound `Cc1cc(O)cc(O)c1C(=O)O` [euspeclibcmpd1613], the “Srxn1-GFP intensity median modified Z-score” value is inactive: -0.155. Turning to `CCCCCCCCCCCCCCCC(=O)OCC(O)c1oc(O)c(O)c1O` (configuration not stated) [euspeclibcmpd862], the “Srxn1-GFP intensity median modified Z-score” value was inactive: -0.777. As for `COCC1(C)NC(=O)N(CCC(=O)Nc2cc(C)on2)C1=O` (configuration not stated), the figure is inactive: 1.16.

Consider `CC1CCC2(OC1)OC1CC3C4CCC5C[C@@H](O)CCC5(C)C4=CCC3(C)C1[C@@H]2C` (some centres not stated) [euspeclibcmpd2138], for which the “Srxn1-GFP intensity median modified Z-score” value is inactive: -0.384. In the case of `CC[C@@]1(O)C(=O)OCc2c1cc1n(c2=O)Cc2cc3c(CN(C)C)c(O)ccc3nc2-1` [euspeclibcmpd620], the “Srxn1-GFP intensity median modified Z-score” value was inactive: -0.0823.
